# Data reported in the supplement of paper PMC12217912.
# This is one part of the list. The full chains were built here from the parent and the listed change. Values near 0.05 are background.
# B1: TEV protease; numbered along this chain (parent)
# chain: MGESLFKGPRDYNPISSSICHLTNESDGHTTSLYGIGFGPFIITNKHLFRRNNGTLVVQSLHGVFKVKDTTTLQQHLVDGRDMIIIRMPKDFPPFPQKLKFREPQREERICLVTTNFQTKSMSSMVSDTSCTFPSGDGIFWKHWIQTKDGQCGSPLVSTRDGFIVGIHSASNFTNTNNYFTSVPKNFMELLTNQEAQQWVSGWRLNADSVLWGGHKVFMVKPEEPFQPVKEATQL
# Variants of: B1
# Assay: raw area under fraction-flipped curve 0-4 h after induction (AUC4h, not background-subtracted), DNA-recorder readout of cleavage of the substrate (dimensionless); higher = more cleavage of the substrate by the protease variant
# Settings: temperature: 34 °C; time window: 0-4 h after rhamnose induction
# Experimental: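 In vivo DNA recorder in E. coli TOP10(DE3) ΔrhaA at 34 °C. Each TEVp single-site mutant (parent TEVp 0) is paired with a single-site variant of the 7-mer TEVs (canonical ENLYFQ|S). The substrate sits between flexible linkers in a Bxb1-sfGFP-TEVs-SsrA fusion, so cleavage stabilises Bxb1 and speeds flipping of a recombination array, read by NGS. The value is the raw area under the fraction-flipped curve over 0-4 h after rhamnose induction (AUC4h), with ≥20 reads per time point. It is not background-subtracted; inactive controls average about 0.047.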
# 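Also: Bxb1 expression induced with 0.2% (w/v) L-rhamnose at OD600 near 0.5, cultures sampled hourly, flipped fraction per protease–substrate barcode pair counted by paired-end Illumina sequencing.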
variant,measurement,value
F226L,area with substrate ENAYFQS,0.0487
same,area with substrate ENDYFQS,0.0646
same,area with substrate ENFYFQS,0.0738
same,area with substrate ENKYFQS,0.0773
same,area with substrate ENMYFQS,0.0771
same,area with substrate ENPYFQS,0.0573
same,area with substrate ENQYFQS,0.056
same,area with substrate ENSYFQS,0.0648
same,area with substrate ENTYFQS,0.0715
same,area with substrate ENVYFQS,0.063
P228T,area with substrate ENAYFQS,0.0445
same,area with substrate ENCYFQS,0.0639
same,area with substrate ENEYFQS,0.0587
same,area with substrate ENFYFQS,0.0602
same,area with substrate ENKYFQS,0.0606
same,area with substrate ENSYFQS,0.0552
same,area with substrate ENTYFQS,0.0492
V229N,area with substrate ENAYFQS,0.0491
same,area with substrate ENCYFQS,0.0647
same,area with substrate ENDYFQS,0.0727
same,area with substrate ENGYFQS,0.07
same,area with substrate ENHYFQS,0.0618
same,area with substrate ENIYFQS,0.0749
same,area with substrate ENKYFQS,0.0474
same,area with substrate ENMYFQS,0.0864
same,area with substrate ENNYFQS,0.0693
same,area with substrate ENPYFQS,0.0641
same,area with substrate ENQYFQS,0.0668
same,area with substrate ENRYFQS,0.0736
same,area with substrate ENSYFQS,0.0668
same,area with substrate ENTYFQS,0.0634
same,area with substrate ENVYFQS,0.0812
same,area with substrate ENYYFQS,0.054
V229W,area with substrate ENAYFQS,0.0479
same,area with substrate ENCYFQS,0.0681
same,area with substrate ENDYFQS,0.0685
same,area with substrate ENEYFQS,0.0583
same,area with substrate ENFYFQS,0.0573
same,area with substrate ENGYFQS,0.0604
same,area with substrate ENHYFQS,0.0515
same,area with substrate ENIYFQS,0.0949
same,area with substrate ENKYFQS,0.0507
same,area with substrate ENMYFQS,0.0718
same,area with substrate ENNYFQS,0.0655
same,area with substrate ENPYFQS,0.0488
same,area with substrate ENQYFQS,0.0579
same,area with substrate ENRYFQS,0.0625
same,area with substrate ENSYFQS,0.0827
same,area with substrate ENTYFQS,0.0636
same,area with substrate ENVYFQS,0.0649
E231D,area with substrate ENAYFQS,0.0634
same,area with substrate ENEYFQS,0.0499
same,area with substrate ENKYFQS,0.0496
same,area with substrate ENQYFQS,0.0548
same,area with substrate ENRYFQS,0.0556
same,area with substrate ENTYFQS,0.0955
same,area with substrate ENVYFQS,0.0867
E231K,area with substrate ENAYFQS,0.0318
same,area with substrate ENGYFQS,0.0429
same,area with substrate ENHYFQS,0.0648
same,area with substrate ENNYFQS,0.0659
same,area with substrate ENQYFQS,0.0732
same,area with substrate ENSYFQS,0.076
same,area with substrate ENVYFQS,0.0874
E231S,area with substrate ENAYFQS,0.046
same,area with substrate ENDYFQS,0.0653
same,area with substrate ENHYFQS,0.0583
same,area with substrate ENIYFQS,0.166
same,area with substrate ENMYFQS,0.0744
same,area with substrate ENPYFQS,0.0679
same,area with substrate ENSYFQS,0.0509
same,area with substrate ENTYFQS,0.0604
same,area with substrate ENVYFQS,0.0727
E231Y,area with substrate ENAYFQS,0.0696
same,area with substrate ENCYFQS,0.0791
same,area with substrate ENEYFQS,0.0712
same,area with substrate ENNYFQS,0.0577
same,area with substrate ENPYFQS,0.0622
same,area with substrate ENQYFQS,0.059
same,area with substrate ENRYFQS,0.0504
same,area with substrate ENSYFQS,0.0758
same,area with substrate ENVYFQS,0.0737
same,area with substrate ENWYFQS,0.0031
same,area with substrate ENYYFQS,0.0507
A232D,area with substrate ENAYFQS,0.0622
same,area with substrate ENDYFQS,0.0691
same,area with substrate ENEYFQS,0.0549
same,area with substrate ENFYFQS,0.0682
same,area with substrate ENGYFQS,0.0579
same,area with substrate ENHYFQS,0.0728
same,area with substrate ENMYFQS,0.0964
same,area with substrate ENPYFQS,0.0583
same,area with substrate ENQYFQS,0.0627
same,area with substrate ENRYFQS,0.0567
same,area with substrate ENTYFQS,0.0788
same,area with substrate ENVYFQS,0.0871
same,area with substrate ENYYFQS,0.0466
T233I,area with substrate ENAYFQS,0.0661
same,area with substrate ENCYFQS,0.063
same,area with substrate ENDYFQS,0.0612
same,area with substrate ENEYFQS,0.0618
same,area with substrate ENGYFQS,0.074
same,area with substrate ENIYFQS,0.107
same,area with substrate ENNYFQS,0.0455
same,area with substrate ENQYFQS,0.0522
same,area with substrate ENVYFQS,0.0611
Q234P,area with substrate ENAYFQS,0.0634
same,area with substrate ENCYFQS,0.0601
same,area with substrate ENEYFQS,0.0778
same,area with substrate ENFYFQS,0.0411
same,area with substrate ENGYFQS,0.0629
same,area with substrate ENIYFQS,0.12
same,area with substrate ENKYFQS,0.0615
same,area with substrate ENMYFQS,0.0796
same,area with substrate ENNYFQS,0.065
same,area with substrate ENPYFQS,0.0602
same,area with substrate ENQYFQS,0.0721
same,area with substrate ENRYFQS,0.0671
same,area with substrate ENTYFQS,0.0785
same,area with substrate ENVYFQS,0.087
L235R,area with substrate ENAYFQS,0.034
same,area with substrate ENQYFQS,0.0691
same,area with substrate ENSYFQS,0.0419
L235W,area with substrate ENAYFQS,0.0605
same,area with substrate ENCYFQS,0.0636
same,area with substrate ENEYFQS,0.0498
same,area with substrate ENHYFQS,0.0831
same,area with substrate ENKYFQS,0.049
same,area with substrate ENNYFQS,0.0621
same,area with substrate ENPYFQS,0.0468
same,area with substrate ENSYFQS,0.0611
same,area with substrate ENTYFQS,0.0635
same,area with substrate ENVYFQS,0.0765
F6E,area with substrate ENCYFQS,0.0666
same,area with substrate ENDYFQS,0.0434
same,area with substrate ENIYFQS,0.0694
same,area with substrate ENPYFQS,0.0488
same,area with substrate ENQYFQS,0.0552
same,area with substrate ENRYFQS,0.0596
same,area with substrate ENSYFQS,0.0658
same,area with substrate ENTYFQS,0.0633
same,area with substrate ENVYFQS,0.0814
K7F,area with substrate ENCYFQS,0.0709
same,area with substrate ENGYFQS,0.069
same,area with substrate ENKYFQS,0.0745
same,area with substrate ENNYFQS,0.0622
same,area with substrate ENRYFQS,0.0614
same,area with substrate ENSYFQS,0.0747
same,area with substrate ENVYFQS,0.0613
P9D,area with substrate ENCYFQS,0.0664
same,area with substrate ENEYFQS,0.0719
same,area with substrate ENFYFQS,0.0658
same,area with substrate ENQYFQS,0.0659
same,area with substrate ENRYFQS,0.0783
same,area with substrate ENTYFQS,0.0621
same,area with substrate ENVYFQS,0.0819
P9T,area with substrate ENCYFQS,0.0631
same,area with substrate ENDYFQS,0.065
same,area with substrate ENIYFQS,0.0786
same,area with substrate ENRYFQS,0.0461
same,area with substrate ENSYFQS,0.0641
S18D,area with substrate ENCYFQS,0.057
same,area with substrate ENEYFQS,0.0737
same,area with substrate ENIYFQS,0.105
same,area with substrate ENMYFQS,0.0751
same,area with substrate ENQYFQS,0.0509
same,area with substrate ENSYFQS,0.0495
same,area with substrate ENTYFQS,0.044
same,area with substrate ENVYFQS,0.063
same,area with substrate ENYYFQS,0.0618
